Data taken from PubChem BioAssay AID2147 (National Center for Advancing Translational Sciences (NCATS), 2009).
Out of some 230,000 compounds screened, about 3,600 (1.6%) were called active. The inconclusive results got no clear call from the source; some entries with a clear call stand among them for comparison. The call rests on the fitted dose curve; in most records, active means well fitted inhibition curve with a large enough effect (not every such curve was filed as active); inconclusive means small, poorly fitted or top-dose-only effect, or another doubt; inactive means no such curve, though single readings can be large or run the other way. Potencies beside an inconclusive call are fits to weak or partial responses and may not hold up.

Molecular target: Lysine-specific demethylase 4E (Homo sapiens) (UniProt B2RXH2)
UniProt B2RXH2, sequence (B2RXH2 whole entry, looked up, the tested form may be a part): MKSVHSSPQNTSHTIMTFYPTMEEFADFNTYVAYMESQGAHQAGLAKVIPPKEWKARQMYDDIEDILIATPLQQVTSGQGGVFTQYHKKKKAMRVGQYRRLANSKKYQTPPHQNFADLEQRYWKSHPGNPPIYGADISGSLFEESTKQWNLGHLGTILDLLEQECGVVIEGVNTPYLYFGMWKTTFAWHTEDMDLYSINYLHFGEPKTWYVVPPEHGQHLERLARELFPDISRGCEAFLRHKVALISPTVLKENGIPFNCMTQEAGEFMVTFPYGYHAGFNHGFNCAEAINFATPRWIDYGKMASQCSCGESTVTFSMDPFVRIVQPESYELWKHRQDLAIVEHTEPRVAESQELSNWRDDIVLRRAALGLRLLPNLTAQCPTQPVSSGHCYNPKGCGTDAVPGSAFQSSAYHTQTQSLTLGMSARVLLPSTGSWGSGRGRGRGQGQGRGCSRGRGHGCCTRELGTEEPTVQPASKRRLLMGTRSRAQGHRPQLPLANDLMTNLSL
Assay: qHTS Assay for Inhibitors of Human Jumonji Domain Containing 2E (JMJD2E)
Details: JMJD2E catalytic domain, FDH-coupled NADH fluorescence (FDH is formaldehyde dehydrogenase); series mostly up to 57.1 µM
Further: nearly all actives have a fitted effect of over 50% in size.
Potency means the concentration at half of the fitted maximal effect; tags describe the fitted curve by direction and shape.

Which Potency does the source give for `N#CC(=C(/N)Sc1ccccc1N)/C(C#N)=C(/N)Sc1ccccc1N` here?
Its Potency is inconclusive: 22.4 µM [inhibitor, partial curve].

For `CN1CCc2c(sc3c2C(=O)NC(c2ccc(-c4cccc(Cl)c4)o2)N3)C1` (stereo not given), which Potency is on record?
The Potency was inconclusive: 25.1 µM [inhibitor, partial curve].

`COc1ccc2oc(=O)c(C(=O)N3CCN(c4ccccc4F)CC3)cc2c1` was tested. Which Potency did it give?
The Potency was inconclusive: 39.8 µM [inhibitor, single point].

Which Potency does the source give for `O=C1/C(=C/c2cccnc2)Oc2cc(OS(=O)(=O)c3ccc(F)cc3)ccc21` here?
The Potency was inconclusive: 28.2 µM [inhibitor, single point].

How did the Potency turn out when `CCOC(=O)c1[nH]c2ccc(OC)cc2c1NC(=O)/C=C/c1ccc2c(c1)OCO2` was run?
The Potency was “inactive”.

For `Cc1ccc(S(=O)(=O)NC(C(=O)Oc2ccc3ccc(=O)oc3c2)c2ccccc2)cc1` (stereo not given), which Potency is on record?
The Potency was inconclusive: 25.1 µM [inhibitor, partial curve].

For `CN1CCc2c(sc3c2C(=O)NC(c2cccs2)N3)C1` (stereo not given), which Potency is on record?
The Potency was inconclusive: 25.1 µM [inhibitor, partial curve].

How did the Potency turn out when `CC(=O)OC1=C(C#N)Cn2ccc3cccc1c32` was run?
Its Potency is inconclusive: 31.6 µM [inhibitor, partial curve].

Which Potency does the source give for `O=C(CSc1ncnc2c1cnn2Cc1ccccc1)Nc1ccc2c(c1)OCCO2` here?
The Potency was “inactive”.

Which Potency does the source give for `O=C(NCc1ccccc1C(F)(F)F)C12CN(Cc3ccccc3)CC1C(c1ccc([N+](=O)[O-])cc1)=NO2` (stereo not given) here?
The Potency was “inactive”.

`CC(Oc1ccc(Cl)cc1Cl)c1nc(-c2ccc(NC(=O)c3ccccn3)cc2)no1` (stereo not given) was tested. Which Potency did it give?
The Potency was inconclusive: 35.5 µM [inhibitor, single point].

With `Cc1c(Br)c([N+](=O)[O-])nn1CC(=O)Nc1sc2c(c1C(=O)OC(C)C)CCCC2` as the compound, how does the Potency read?
Its Potency is “inactive”.

Which Potency does the source give for `CCOC(=O)c1[nH]c2ccccc2c1NC(=O)c1ccc(Br)o1` here?
The Potency was “inactive”.

`CCN(CC)CCNC(=O)c1cc2cc(Br)ccc2s1` was tested. Which Potency did it give?
The Potency was “inactive”.

With `CCOC(=O)c1cc(C(=O)OCC)c2ccccn2c1=O` as the compound, how does the Potency read?
Its Potency is inconclusive: 28.2 µM [inhibitor, partial curve].

`O=C(c1cnn2c(C(F)F)cc(-c3ccccc3)nc12)N1CCOCC1` was tested. Which Potency did it give?
Its Potency is inconclusive: 31.6 µM [inhibitor, single point].

With `CCOc1cc(/C=N/NC(=O)CCn2nc(C)cc2C)ccc1O` as the compound, how does the Potency read?
The Potency was inconclusive: 39.8 µM [inhibitor, single point].

For `Cc1cc(C(=O)N2CCCC(CCC(=O)N3CCN(c4ccccn4)CC3)C2)c(C)o1` (stereo not given), which Potency is on record?
Its Potency is inconclusive: 35.5 µM [inhibitor, single point].

How did the Potency turn out when `COc1cc2cc(CN(CCN3CCOCC3)C(=O)Nc3ccc(F)cc3)c(=O)[nH]c2cc1OC` was run?
The Potency was inconclusive: 31.6 µM [inhibitor, partial curve].

Which Potency does the source give for `COc1ccc(Cc2nnc(SCC(=O)NCc3ccco3)o2)cc1` here?
Its Potency is “inactive”.

Which Potency does the source give for `CC1=C(C)CC(C(=O)NNC(=O)c2ccccc2O)C(C(=O)O)C1` (stereo not given) here?
Its Potency is inconclusive: 25.1 µM [inhibitor, partial curve].

Which Potency does the source give for `Brc1ccc2[nH]c3c(N4CCc5ccccc5C4)ncnc3c2c1` here?
The Potency was active: 3.55 µM.

`CSc1nc(C)nc2c1c(=O)n(C)c(=O)n2C` was tested. Which Potency did it give?
The Potency was inconclusive: 3.98 µM [inhibitor, single point].

How did the Potency turn out when `O=C(c1cccc(C(=O)N2CCN(c3ccc(F)cc3)CC2)c1)N1CCN(c2ccc(F)cc2)CC1` was run?
The Potency was inconclusive: 8.91 µM [inhibitor, single point].

How did the Potency turn out when `Cc1sc2nc(CN3CCCC3)nc(N3CCN(C(=O)c4ccco4)CC3)c2c1C` was run?
The Potency was inconclusive: 35.5 µM [inhibitor, single point].

With `C=CC(=O)c1ccc2ccccc2c1` as the compound, how does the Potency read?
The Potency was inconclusive: 28.2 µM [inhibitor, single point].

`Cc1ccc(NC(=O)CCc2nc3ccccc3s2)c(O)c1` was tested. Which Potency did it give?
The Potency was “inactive”.

How did the Potency turn out when `COc1cccc2c1CCC1=CC(=O)CC[C@@]12C` was run?
The Potency was “inactive”.

How did the Potency turn out when `O=C(CSC1=Nc2ccccc2C2=NC(CC(=O)N3CCN(c4ccccc4)CC3)C(=O)N12)NCC1CCCO1` (stereo not given) was run?
The Potency was inconclusive: 31.6 µM [inhibitor, single point].

How did the Potency turn out when `COCCNC(=O)CN1CCC(NC(=O)c2ccco2)CC1` was run?
The Potency was inconclusive: 39.8 µM [inhibitor, single point].

Which Potency does the source give for `Cc1cc2nc(-c3ccc(SCC(=O)NC(C)C)nc3)[nH]c2cc1C` here?
Its Potency is inconclusive: 25.1 µM [inhibitor, partial curve].

For `COc1ccc(-n2ncc3c(N4CCCc5ccccc54)ncnc32)cc1`, which Potency is on record?
Its Potency is inconclusive: 31.6 µM [inhibitor, single point].

With `COc1cc2c(cc1OC)C(=O)C(CC1CCN(Cc3ccccc3)CC1)C2` (stereo not given) as the compound, how does the Potency read?
Its Potency is inconclusive: 25.1 µM [inhibitor, single point].

How did the Potency turn out when `O=c1[nH]c2cc3c(cc2cc1CN(CCc1ccccc1)Cc1nnnn1CC1CCCO1)OCO3` (stereo not given) was run?
The Potency was inconclusive: 35.5 µM [inhibitor, single point].

How did the Potency turn out when `O=C(N/N=C/c1cc2cc3c(cc2nc1Cl)OCO3)c1ccncc1` was run?
Its Potency is inconclusive: 35.5 µM [inhibitor, partial curve].

For `COc1ccc2c([N+](=O)[O-])c(Cl)[nH]c2c1`, which Potency is on record?
Its Potency is active: 15.8 µM.

`CC(=O)c1ccc(N/C=C\C(=O)c2ccc(C)cc2)cc1` was tested. Which Potency did it give?
The Potency was inconclusive: 31.6 µM [inhibitor, single point].

For `COc1ccccc1N/C=C1/Sc2cc(Cl)ccc2NC1=O`, which Potency is on record?
Its Potency is “inactive”.

Which Potency does the source give for `CCn1c(SCC(=O)NCCOC)nc2sc3c(c2c1=O)CCCC3` here?
Its Potency is inconclusive: 39.8 µM [inhibitor, single point].

Which Potency does the source give for `Cc1c(NC(=O)CN2C(=O)c3cccc4cccc2c34)c(=O)n(-c2ccccc2)n1C` here?
Its Potency is “inactive”.

`Cc1csc(=Nc2ccccc2)n1Cc1ccco1` was tested. Which Potency did it give?
The Potency was “inactive”.

How did the Potency turn out when `O=C(NCCc1ccccc1)c1cc2ncc(Br)cn2n1` was run?
The Potency was inconclusive: 39.8 µM [inhibitor, single point].

With `Cc1ccc(NC(=O)CCC(=O)OCC(=O)c2ccc(Oc3ccc([N+](=O)[O-])cc3)cc2)c(C)c1` as the compound, how does the Potency read?
Its Potency is “inactive”.

`CCCCC[C@H](O)/C=C/C=C/C/C=C\CCCC(=O)O` was tested. Which Potency did it give?
The Potency was “inactive”.

How did the Potency turn out when `Cc1cc(C)nc(N(C#N)S(=O)(=O)c2ccccc2)n1` was run?
Its Potency is inconclusive: 39.8 µM [inhibitor, single point].

`C=CCN=C1NN=C(c2ccc3c(c2)OCCO3)CS1` was tested. Which Potency did it give?
The Potency was inconclusive: 25.1 µM [inhibitor, single point].

Which Potency does the source give for `CCOc1ccc(/C(O)=C2/C(=O)C(=O)N(c3ncccn3)C2c2ccccc2)cc1` (stereo not given) here?
Its Potency is “inactive”.

`O=C(Nc1sc2c(c1C(=O)O)CCC2)c1ccccc1` was tested. Which Potency did it give?
Its Potency is “inactive”.

With `O=C(c1ccco1)N(CCC(c1ccccc1)c1ccco1)Cc1ccco1` (stereo not given) as the compound, how does the Potency read?
The Potency was inconclusive: 39.8 µM [inhibitor, single point].

`CC1CCCCN1CCNC(=O)c1cnn2ccccc12` (stereo not given) was tested. Which Potency did it give?
The Potency was inconclusive: 31.6 µM [inhibitor, partial curve].

For `COc1ccc(CC(=O)NNC(=O)CCc2ccccc2)cc1OC`, which Potency is on record?
The Potency was “inactive”.

`O=C(O)CCC(=O)N1N=C(c2c(-c3ccccc3)c3cc(Cl)ccc3[nH]c2=O)CC1c1cccs1` (stereo not given) was tested. Which Potency did it give?
Its Potency is inconclusive: 28.2 µM [inhibitor, single point].

With `O=C(CCc1nnc(CCCCc2ccccc2)o1)NCCN1CCCCC1=O` as the compound, how does the Potency read?
The Potency was inconclusive: 31.6 µM [inhibitor, single point].

Which Potency does the source give for `Cc1ccc(NC(=O)c2cccc(OCc3c(C)noc3C)c2)cc1S(=O)(=O)Nc1ccccc1Cl` here?
The Potency was inconclusive: 39.8 µM [inhibitor, single point].

Which Potency does the source give for `S=C(NCc1ccncc1)Nc1cccc(Cl)c1` here?
The Potency was “inactive”.

With `COc1ccc(C2=NN(C(=O)CSc3nnc(-c4ccccc4F)o3)C(c3ccco3)C2)cc1` (stereo not given) as the compound, how does the Potency read?
The Potency was inconclusive: 39.8 µM [inhibitor, single point].

How did the Potency turn out when `O=c1cccc2n1Cc1cc3ccccc3nc1-2` was run?
Its Potency is inconclusive: 31.6 µM [inhibitor, partial curve].

With `O=C(COc1ncnc2cc([N+](=O)[O-])ccc12)NC1CCCCC1` as the compound, how does the Potency read?
The Potency was inconclusive: 2.51 µM [inhibitor, full curve].

For `C=CCc1c(C)nc(C)nc1N/N=C/c1ccc([N+](=O)[O-])cc1`, which Potency is on record?
The Potency was “inactive”.

For `O=S(=O)(c1cccs1)N1CN(Cc2ccco2)c2nc3ccccc3nc21`, which Potency is on record?
The Potency was inconclusive: 35.5 µM [inhibitor, partial curve].

`COc1ccc(NC(=O)CN2C(=O)c3cccc4cccc2c34)cc1OC` was tested. Which Potency did it give?
Its Potency is inconclusive: 31.6 µM [inhibitor, single point].

How did the Potency turn out when `NS(=O)(=O)c1ccc(CNC(=O)C2(c3ccc(Cl)cc3)CC2)cc1` was run?
The Potency was inconclusive: 31.6 µM [inhibitor, single point].

How did the Potency turn out when `CCC1(C)N=C(c2ccc3c(c2)OCO3)CC(c2ccccc2O)N1` (stereo not given) was run?
The Potency was inconclusive: 39.8 µM [inhibitor, single point].

`COc1ccc2c(CC(=O)N(C)CC3COc4ccccc4O3)coc2c1` (stereo not given) was tested. Which Potency did it give?
Its Potency is inconclusive: 31.6 µM [inhibitor, partial curve].

With `CCOC(=O)c1cnn(-c2nc3sc4c(c3c(=O)[nH]2)CCCC4)c1N` as the compound, how does the Potency read?
Its Potency is inconclusive: 8.91 µM [inhibitor, single point].

How did the Potency turn out when `Cc1cc(C)c(-n2c(SCCS(=O)(=O)c3ccc(F)cc3)n[nH]c2=O)c(C)c1` was run?
Its Potency is “inactive”.

For `C(=N\Nc1nc(Nc2ccccc2)nc(Nc2ccccc2)n1)/c1cccnc1`, which Potency is on record?
The Potency was “inactive”.

`COC(=O)Sc1nc(N2CCOCC2)c2c(c1C#N)CC(C)(C)OC2` was tested. Which Potency did it give?
The Potency was inconclusive: 39.8 µM [inhibitor, single point].

How did the Potency turn out when `CCOC(=O)c1sc2c(c1C)c(=O)c(C(=O)OCC)cn2CC` was run?
Its Potency is inconclusive: 35.5 µM [inhibitor, partial curve].

For `COCCn1cc(C(=O)N2CCCC(C)C2)c2c3ccccc3n(C)c2c1=O` (stereo not given), which Potency is on record?
The Potency was inconclusive: 31.6 µM [inhibitor, partial curve].
